Measurements reported in publication PMC12820563, “FoxP3 forms a head-to-head dimer in vivo and stabilizes its multimerization on adjacent microsatellites”.
The other results are listed elsewhere or left out.

These sequences were tested against T1, MBP-FoxP1dN (Mus musculus, UniProt P58462 326-579) (assay: PD-seq (MBP pull-down with sequencing); 20 mM Tris-HCl pH 7.5, 100 mM NaCl, 1.5 mM MgCl2, 0.4 uM protein, 0.1 uM dsDNA library, 30 min, room temperature, amylose pull-down; high values mean tight binding). Details: protein: recombinant; tags: His6-MBP; chain copies: 2; dsDNA, one strand shown.
T1 sequence: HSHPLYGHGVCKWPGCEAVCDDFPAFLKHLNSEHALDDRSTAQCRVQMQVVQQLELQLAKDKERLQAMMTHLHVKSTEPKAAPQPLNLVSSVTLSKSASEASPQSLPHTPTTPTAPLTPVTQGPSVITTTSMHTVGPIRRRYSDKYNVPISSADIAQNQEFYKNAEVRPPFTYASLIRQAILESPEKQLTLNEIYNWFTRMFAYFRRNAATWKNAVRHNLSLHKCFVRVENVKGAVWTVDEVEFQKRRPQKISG
Summary of the method: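 Amylose resin was used to capture complexes formed during 30 min at room temperature in Tris pH 7.5 buffer with NaCl and MgCl2 between 0.4 µM His6-MBP-tagged mouse FoxP3 or FoxP1 fragment lacking the N-terminus, expressed in E. coli, and 0.1 µM Klenow-filled double-stranded degenerate DNA library. After three washes, the DNA was released with proteinase K, barcoded by PCR and sequenced on Illumina. Binding is pooled-replicate reads-per-million enrichment, pull-down over input.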

Row | Sequence | binding signal
1 | GATGATTGTTCTCCCAGCTGATGAATTATGGCTGTCGAGTAAACAAATTTTCCTAATCTTTCTGTTCAAGCGCCATCTAC | 0.925 RPM ratio (pull-down/input)
2 | GATGATTGTTCTCCCAGCTGATGAATTCAAAGGGTCGAGTAAACAAATTTTCCTAATCTTTCTGTTCAAGCGCCATCTAC | 0.741 RPM ratio (pull-down/input)
3 | GATGATTGTTCTCCCAGCTGATGAATTGCCCAGTTCGAGTAAACAAATTTTCCTAATCTTTCTGTTCAAGCGCCATCTAC | 0.931 RPM ratio (pull-down/input)
4 | GATGATTGTTCTCCCAGCTGATGAATTTCAATGCTCGAGTAAACAAATTTTCCTAATCTTTCTGTTCAAGCGCCATCTAC | 0.9 RPM ratio (pull-down/input)
5 | GATGATTGTTCTCCCAGCTGATGAATTTTTTATTTCGAGTAAACAAATTTTCCTAATCTTTCTGTTCAAGCGCCATCTAC | 1.04 RPM ratio (pull-down/input)
6 | GATGATTGTTCTCCCAGCTGATGAATTTTGAGACTCGAGTAAACAAATTTTCCTAATCTTTCTGTTCAAGCGCCATCTAC | 0.862 RPM ratio (pull-down/input)
7 | GATGATTGTTCTCCCAGCTGATGAATTTTCTGTTTCGAGTAAACAAATTTTCCTAATCTTTCTGTTCAAGCGCCATCTAC | 0.977 RPM ratio (pull-down/input)
8 | GATGATTGTTCTCCCAGCTGATGAATTACGCAATTCGAGTAAACAAATTTTCCTAATCTTTCTGTTCAAGCGCCATCTAC | 1.16 RPM ratio (pull-down/input)
9 | GATGATTGTTCTCCCAGCTGATGAATTTGCCTATTCGAGTAAACAAATTTTCCTAATCTTTCTGTTCAAGCGCCATCTAC | 0.954 RPM ratio (pull-down/input)
10 | GATGATTGTTCTCCCAGCTGATGAATTCCCAAGTTCGAGTAAACAAATTTTCCTAATCTTTCTGTTCAAGCGCCATCTAC | 0.774 RPM ratio (pull-down/input)
11 | GATGATTGTTCTCCCAGCTGATGAATTTCCCAAGTCGAGTAAACAAATTTTCCTAATCTTTCTGTTCAAGCGCCATCTAC | 0.82 RPM ratio (pull-down/input)
12 | GATGATTGTTCTCCCAGCTGATGAATTGTAACAATCGAGTAAACAAATTTTCCTAATCTTTCTGTTCAAGCGCCATCTAC | 1.7 RPM ratio (pull-down/input)
13 | GATGATTGTTCTCCCAGCTGATGAATTCTTGGGTTCGAGTAAACAAATTTTCCTAATCTTTCTGTTCAAGCGCCATCTAC | 0.897 RPM ratio (pull-down/input)
14 | GATGATTGTTCTCCCAGCTGATGAATTATAGACTTCGAGTAAACAAATTTTCCTAATCTTTCTGTTCAAGCGCCATCTAC | 0.9 RPM ratio (pull-down/input)
15 | GATGATTGTTCTCCCAGCTGATGAATTTCCAGGCTCGAGTAAACAAATTTTCCTAATCTTTCTGTTCAAGCGCCATCTAC | 0.756 RPM ratio (pull-down/input)
16 | GATGATTGTTCTCCCAGCTGATGAATTCGAGCGATCGAGTAAACAAATTTTCCTAATCTTTCTGTTCAAGCGCCATCTAC | 0.833 RPM ratio (pull-down/input)
17 | GATGATTGTTCTCCCAGCTGATGAATTCACCCCGTCGAGTAAACAAATTTTCCTAATCTTTCTGTTCAAGCGCCATCTAC | 0.853 RPM ratio (pull-down/input)
18 | GATGATTGTTCTCCCAGCTGATGAATTTGTGTCTTCGAGTAAACAAATTTTCCTAATCTTTCTGTTCAAGCGCCATCTAC | 1.32 RPM ratio (pull-down/input)
19 | GATGATTGTTCTCCCAGCTGATGAATTGAGTCCCTCGAGTAAACAAATTTTCCTAATCTTTCTGTTCAAGCGCCATCTAC | 0.781 RPM ratio (pull-down/input)
20 | GATGATTGTTCTCCCAGCTGATGAATTCCGGAGCTCGAGTAAACAAATTTTCCTAATCTTTCTGTTCAAGCGCCATCTAC | 0.72 RPM ratio (pull-down/input)

Row | Sequence | binding signal
21 | GATGATTGTTCTCCCAGCTGATGAATTCACGCAATCGAGTAAACAAATTTTCCTAATCTTTCTGTTCAAGCGCCATCTAC | 1.32 RPM ratio (pull-down/input)
22 | GATGATTGTTCTCCCAGCTGATGAATTAGAGGGTTCGAGTAAACAAATTTTCCTAATCTTTCTGTTCAAGCGCCATCTAC | 0.864 RPM ratio (pull-down/input)
23 | GATGATTGTTCTCCCAGCTGATGAATTACAATACTCGAGTAAACAAATTTTCCTAATCTTTCTGTTCAAGCGCCATCTAC | 1.27 RPM ratio (pull-down/input)
24 | GATGATTGTTCTCCCAGCTGATGAATTATTACGCTCGAGTAAACAAATTTTCCTAATCTTTCTGTTCAAGCGCCATCTAC | 1.05 RPM ratio (pull-down/input)
25 | GATGATTGTTCTCCCAGCTGATGAATTGGGAAGTTCGAGTAAACAAATTTTCCTAATCTTTCTGTTCAAGCGCCATCTAC | 0.835 RPM ratio (pull-down/input)
26 | GATGATTGTTCTCCCAGCTGATGAATTACAGTACTCGAGTAAACAAATTTTCCTAATCTTTCTGTTCAAGCGCCATCTAC | 1.06 RPM ratio (pull-down/input)
27 | GATGATTGTTCTCCCAGCTGATGAATTTCCTGGGTCGAGTAAACAAATTTTCCTAATCTTTCTGTTCAAGCGCCATCTAC | 0.797 RPM ratio (pull-down/input)
28 | GATGATTGTTCTCCCAGCTGATGAATTTCGGCGATCGAGTAAACAAATTTTCCTAATCTTTCTGTTCAAGCGCCATCTAC | 0.817 RPM ratio (pull-down/input)
29 | GATGATTGTTCTCCCAGCTGATGAATTCCTGCCATCGAGTAAACAAATTTTCCTAATCTTTCTGTTCAAGCGCCATCTAC | 0.86 RPM ratio (pull-down/input)
30 | GATGATTGTTCTCCCAGCTGATGAATTAACGGCCTCGAGTAAACAAATTTTCCTAATCTTTCTGTTCAAGCGCCATCTAC | 0.898 RPM ratio (pull-down/input)
31 | GATGATTGTTCTCCCAGCTGATGAATTACGCGTTTCGAGTAAACAAATTTTCCTAATCTTTCTGTTCAAGCGCCATCTAC | 1.09 RPM ratio (pull-down/input)
32 | GATGATTGTTCTCCCAGCTGATGAATTGACTTCGTCGAGTAAACAAATTTTCCTAATCTTTCTGTTCAAGCGCCATCTAC | 0.964 RPM ratio (pull-down/input)
33 | GATGATTGTTCTCCCAGCTGATGAATTTCCACACTCGAGTAAACAAATTTTCCTAATCTTTCTGTTCAAGCGCCATCTAC | 0.908 RPM ratio (pull-down/input)
34 | GATGATTGTTCTCCCAGCTGATGAATTACATGATTCGAGTAAACAAATTTTCCTAATCTTTCTGTTCAAGCGCCATCTAC | 1.22 RPM ratio (pull-down/input)
35 | GATGATTGTTCTCCCAGCTGATGAATTGCTGACGTCGAGTAAACAAATTTTCCTAATCTTTCTGTTCAAGCGCCATCTAC | 1.09 RPM ratio (pull-down/input)
36 | GATGATTGTTCTCCCAGCTGATGAATTAGTCTGCTCGAGTAAACAAATTTTCCTAATCTTTCTGTTCAAGCGCCATCTAC | 0.819 RPM ratio (pull-down/input)
37 | GATGATTGTTCTCCCAGCTGATGAATTGCTATTCTCGAGTAAACAAATTTTCCTAATCTTTCTGTTCAAGCGCCATCTAC | 1.29 RPM ratio (pull-down/input)
38 | GATGATTGTTCTCCCAGCTGATGAATTGGGCCGTTCGAGTAAACAAATTTTCCTAATCTTTCTGTTCAAGCGCCATCTAC | 0.85 RPM ratio (pull-down/input)
39 | GATGATTGTTCTCCCAGCTGATGAATTCATCTCTTCGAGTAAACAAATTTTCCTAATCTTTCTGTTCAAGCGCCATCTAC | 0.774 RPM ratio (pull-down/input)
40 | GATGATTGTTCTCCCAGCTGATGAATTGGCTTACTCGAGTAAACAAATTTTCCTAATCTTTCTGTTCAAGCGCCATCTAC | 0.92 RPM ratio (pull-down/input)
